# Laboratory results published in article PMC4336329 (PLoS ONE, 2015).
# Hit rate of the full screen: of about 310,000 compounds, about 2,200 (0.71%) showed an effect of 50% or more. The effect is printed as a negative number. The list shows a part of the results.
# Molecular target: human ether-à-go-go-related gene (hERG) potassium channel (human, UniProt Q12809)
# Test: primary screen, population patch clamp on CHO cells stably expressing hERG
# Chain of human ether-à-go-go-related gene (hERG) potassium channel (Q12809 whole entry, looked up): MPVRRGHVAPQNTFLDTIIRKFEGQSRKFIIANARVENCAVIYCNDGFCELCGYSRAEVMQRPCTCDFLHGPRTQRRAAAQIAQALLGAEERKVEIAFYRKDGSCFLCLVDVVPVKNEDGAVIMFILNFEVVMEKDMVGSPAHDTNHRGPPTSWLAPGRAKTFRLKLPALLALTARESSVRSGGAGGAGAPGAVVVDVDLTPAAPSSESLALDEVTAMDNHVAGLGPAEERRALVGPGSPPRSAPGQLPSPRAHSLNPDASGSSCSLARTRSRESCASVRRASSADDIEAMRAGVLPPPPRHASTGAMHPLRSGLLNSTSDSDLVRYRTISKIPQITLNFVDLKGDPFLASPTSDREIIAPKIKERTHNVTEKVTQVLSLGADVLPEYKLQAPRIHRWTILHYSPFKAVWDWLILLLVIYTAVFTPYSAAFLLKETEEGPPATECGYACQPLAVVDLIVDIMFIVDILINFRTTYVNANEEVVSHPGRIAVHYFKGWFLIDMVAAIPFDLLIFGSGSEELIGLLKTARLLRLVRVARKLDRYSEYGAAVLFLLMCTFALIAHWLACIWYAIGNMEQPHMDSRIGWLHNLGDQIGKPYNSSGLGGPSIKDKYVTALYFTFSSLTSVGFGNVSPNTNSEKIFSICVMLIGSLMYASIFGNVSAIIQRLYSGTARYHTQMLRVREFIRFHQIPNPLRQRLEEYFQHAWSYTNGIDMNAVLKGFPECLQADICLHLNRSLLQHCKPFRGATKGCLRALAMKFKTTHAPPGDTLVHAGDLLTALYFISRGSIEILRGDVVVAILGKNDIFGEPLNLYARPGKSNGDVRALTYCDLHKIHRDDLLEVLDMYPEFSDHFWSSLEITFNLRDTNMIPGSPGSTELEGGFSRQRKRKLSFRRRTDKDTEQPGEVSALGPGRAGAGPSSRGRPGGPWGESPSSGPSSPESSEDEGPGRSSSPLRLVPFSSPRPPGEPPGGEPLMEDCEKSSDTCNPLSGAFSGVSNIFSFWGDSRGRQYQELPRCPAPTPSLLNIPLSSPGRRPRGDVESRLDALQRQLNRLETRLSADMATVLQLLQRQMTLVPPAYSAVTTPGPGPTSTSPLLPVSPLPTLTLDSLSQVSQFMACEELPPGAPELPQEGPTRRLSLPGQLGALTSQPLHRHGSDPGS
row,SMILES,"hERG current change (%, negative = inhibition) at 1uM"
1,CSCC[C@H](NS(=O)(=O)c1ccc(C(C)=O)cc1)c1nnc2ccccn12,9.97%
2,COc1ccc(/C=N/NC(=S)Nc2c(C)n(C)n(-c3ccccc3)c2=O)cc1OC,14.5%
3,CSCCOC(=O)C1=C(C)Nc2ccc(C)cc2S1,11.8%
4,COc1cccc(N(C(=O)c2snc(C(N)=O)c2N)C(C(=O)NCc2ccccc2)c2ccc(O)cc2)c1 (centres unmarked),5.25%
5,COc1ccc2c(c1)CC/C(=C/c1cc(OC)c(OC)c(OC)c1)C2=O,4.26%
6,CN(CCCNC(=O)CN1C(=O)CC(C)(C)S(=O)(=O)c2ccccc21)C1CCCCC1,11.4%
7,CCC(C)/C=C(C)/C=C/C1=CC2=C(Cl)C(=O)C(C)(OC(C)=O)C(=O)C2=CO1 (centres unmarked),4.76%
8,CCOc1ccc(C(=O)CCC(=O)N2CCC(C(=O)OC)CC2)cc1,10.1%
9,COc1cc(/C=N/n2c(-c3cc(C)[nH]n3)n[nH]c2=S)cc(OC)c1OC,11.8%
10,CC(=O)NC1CCCN(O)C(=O)/C=C(\C)CCOC(=O)C(NC(C)=O)CCCN(O)C(=O)/C=C(\C)CCOC(=O)C(NC(C)=O)CCCN(O)C(=O)/C=C(\C)CCOC1=O (centres unmarked),-9.21%
11,O=C1NC(=S)N/C1=C/c1cc([N+](=O)[O-])ccc1N1CCOCC1,-8.36%
12,CC1(C)C([N+](=O)[O-])C(c2ccc(F)cc2)NC(c2ccc(F)cc2)C1[N+](=O)[O-] (centres unmarked),14.4%
13,O=C(NC(=S)NCCN1CCOCC1)c1ccccc1Br,16.7%
14,Cc1cc(=O)oc2c3c(cc(OCC(=O)NCc4ccncc4)c12)OC(C)(C)CC3,3.27%
15,Cc1occc1C(=O)Nc1cccc(C(F)(F)F)c1,-0.447%
16,CN(C)c1ccc(NC(=O)CSCc2nc3c(nnn3Cc3ccc(F)cc3)c(=O)[nH]2)cc1,-2.58%
17,Cc1cccc(NC(=O)c2nc[nH]c2C(=O)N[C@H](C)c2ccccc2)c1,19.7%
18,COc1ccc(OC)c(C(=O)N2CCC(C(=O)c3ccc(F)cc3)CC2)c1,8.14%
19,Cc1c(C(=O)N2CCC(C(N)=O)CC2)oc2ccc(Br)cc12,10%
20,CCn1cc(C(=O)NCc2ccco2)c2cc(OC)c(OC)cc2c1=O,-8.54%
21,COc1ccc(C2=NOC(C(=O)NCc3cccs3)C2)cc1OC (centres unmarked),17.6%
22,O=C(O)CC1S/C(=N/N=C2CCCCC2)N(c2ccccc2)C1=O (centres unmarked),13%

row,SMILES,"hERG current change (%, negative = inhibition) at 1uM"
1,Cc1ccc(CNC(=O)C2CCN(S(=O)(=O)c3ccc4c(c3)CC(C)N4C(=O)C3CC3)CC2)cc1 (centres unmarked),-0.584%
2,CN1CCC(=NNC(=O)c2cn(-c3ccccc3)nc2-c2ccccc2)CC1,10.9%
3,CCOC(=O)CSc1nc2ccc(C)cc2cc1C#N,-1.42%
4,CC(C)CC(NC(=O)c1cccs1)c1nnc(SCc2ccc(Cl)c(Cl)c2)n1C (centres unmarked),11.9%
5,Cc1sc2ncn(CC(=O)N3CCN(c4ccccc4)CC3)c(=O)c2c1S(=O)(=O)N1CCOCC1,11.4%
6,Cc1cnc(NC(=O)CSc2ccc(Cl)cc2)s1,5.22%
7,COc1ccc(CC(=O)Nc2nc(C)cs2)cc1S(=O)(=O)N1CCOCC1,6.98%
8,Cc1ccc(/C=N/NC(=O)c2cc3c(s2)CCCC3)o1,9.87%
9,COc1ccc(-n2c(CNC(=O)COc3ccccc3)n[nH]c2=S)cc1,15.2%
10,O=C1Nc2ccccc2Nc2ccc([N+](=O)[O-])cc21,0.957%
11,COC(=O)CSc1nc(N)nc(C)c1Br,7.96%
12,COC(=O)/C(=C/Nc1ccc(O)cc1)[N+](=O)[O-],12.9%
13,CC(C)CCNC(=O)C(c1cccs1)N(CC1CCCO1)C(=O)Cn1nnc2ccccc21 (centres unmarked),10.4%
14,Cc1ccc(N2CC(C(=O)NCc3nnnn3-c3ccc(C)c(C)c3)CC2=O)cc1 (centres unmarked),11.5%
15,O=C(O)c1cccc2c1C(=O)c1ccccc1-2,12.6%
16,CCCCC1=NN(C(=O)c2cocc2C)C(O)(C(F)(F)F)C1 (centres unmarked),10.1%
17,Cc1[nH]c(=O)[nH]c(=O)c1S(=O)(=O)N1CCCC1,8.99%
18,Cc1cccc(-c2noc(CCC(=O)NC3CCCC3)n2)c1,12.1%
19,O=C(CN1C(=O)C2C3C=CC(C3)C2C1=O)Nc1ccc2c(c1)OCCO2 (centres unmarked),-1.33%
20,CN(c1ccccc1C(=O)NCc1ccccc1Cl)S(=O)(=O)c1ccccc1,10.9%
21,O=C(NNC(=S)Nc1ccc(Cl)c(Cl)c1)c1cccc([N+](=O)[O-])c1,16.3%
22,CCN(CC)CCOC(=O)c1ccc(NC(=O)CNC(=O)C2CCCCC2)cc1.Cl,1.83%

row,SMILES,"hERG current change (%, negative = inhibition) at 1uM"
1,COc1cccc(-c2nnc(SCC3CNC(=O)O3)n2-c2ccc(Cl)cc2)c1 (centres unmarked),15.8%
2,CCC(C)NC(=O)Cn1cnc2sc(C)c(S(=O)(=O)N3CCCCC3)c2c1=O (centres unmarked),9.83%
3,Cc1cccc(NC(=S)NCC(c2cccnc2)N(C)C)c1C (centres unmarked),10.1%
4,CSc1ccc(Cl)c(C(=O)NCCOc2cc(C)ccc2C(C)C)c1,12.9%
5,Nn1cnnc1SCC(=O)Nc1ccc(C2CCCCC2)cc1,7.57%
6,CCOC(=O)c1ccc2c(c1)nc(SCC(=O)c1ccco1)n2CC,11.9%
7,Cc1cc(-c2onc(C)c2C(=O)Nc2ccc(C(F)(F)F)cc2)no1,9.78%
8,O=C(NCC1(c2ccccc2)CCOCC1)c1ccc(Br)o1,5.21%
9,C1CC2OC2CC1C1CO1 (centres unmarked),14.8%
10,Cc1ccccc1-n1c(SCc2cccc(F)c2)nc2[nH]ncc2c1=O,6.09%
11,Nc1ccn(CC(=O)NCc2ccc3[nH]ccc3c2)c(=O)n1,22%
12,O=C(Oc1c(-c2ccccc2)c(=O)n2c3c(cccc13)CC2)c1ccco1,1.13%
13,COc1ccc(/C=C(\NC(=O)c2ccco2)C(=O)N2CCCCC2)cc1,16.5%
14,CCC(=NCCCO)c1c(O)n(-c2ccc(OC)cc2)c(=O)[nH]c1=O,13.3%
15,Cc1[nH]c(=O)[nH]c(=O)c1/C=N/NC(=O)[C@H](CC(C)C)NC(=O)OC(C)(C)C,10.2%
16,CC(OC(=O)c1ccc([N+](=O)[O-])s1)C(=O)NC1CCCCC1C (centres unmarked),6.37%
17,CCOC(=O)N1CC=C2C(C#N)=C(N)C(C#N)(C#N)[C@H](c3cccs3)C2C1 (some centres unmarked),3.54%
18,Cc1[nH]c2ccccc2c1C(c1ccncc1)N1CCN(c2ccccn2)CC1 (centres unmarked),13.4%
19,N#CCC(=O)Nc1ccc(C(=O)OCC(=O)Nc2ccccc2Sc2ccccc2)cc1,8.9%
20,COCC(=O)Nc1nc2n(n1)C(c1ccc(Cl)cc1)CC(c1ccc(OC)cc1)N2 (centres unmarked),-31.1%
21,COc1cc(/C=C/C(=O)OCC(=O)Nc2ccc([N+](=O)[O-])cc2)ccc1O,11.8%
22,Cc1ccc(Cc2nnc(SCC(=O)Nc3c(C)cccc3C)[nH]c2=O)cc1,-4.17%

row,SMILES,"hERG current change (%, negative = inhibition) at 1uM"
1,Cc1ccccc1OCCn1cc(/C=C(\C#N)C(=O)NCc2ccco2)c2ccccc21,9.85%
2,COCCN(C(=S)Nc1ccccc1OC)C1CCN(C(C)=O)CC1,17.2%
3,COc1cccc(/C=N/NC(=O)c2nnn(-c3nonc3N)c2C(C)C)c1,15.9%
4,C/C(CC(C)(C)c1ccccc1)=N\NS(=O)(=O)c1ccccc1,15.6%
5,CCC(C)(C)NC(=O)C(c1ccccc1Cl)N(C(=O)CCC(=O)Nc1cc(C)on1)C(C)(C)C (centres unmarked),7.16%
6,CCc1ccccc1N(CC)C(=O)c1cn(CC)c(=O)c2cc(OC)c(OC)cc12,9.82%
7,CCc1ccccc1NC(=S)N(CCN1CCOCC1)C1CCN(C(C)=O)CC1,17.6%
8,CCOc1ccc(-c2noc(=O)[nH]2)cc1,-4.45%
9,Cc1noc(C)c1COc1ccc(C(=O)NNC(=O)c2ccccc2F)cc1,7.24%
10,Oc1ccccc1N1CCN(C(=S)NCc2ccccc2)CC1,3.2%
11,O=C(NCCN1C(=O)C2C3C=CC(C3)C2C1=O)Nc1cccnc1 (centres unmarked),10.3%
12,CCOc1ccccc1NC(=O)c1nnn(-c2ccc3c(c2)OCCO3)c1N,14.2%
13,CC(=O)N(c1ccccc1)c1ccc([N+](=O)[O-])cc1[N+](=O)[O-],3.46%
14,COC(=O)c1cc(NC(=O)Cc2ccc(OC)c(OC)c2)cc(C(=O)OC)c1,3.88%
15,COc1ccc(-c2nnc(SCC#CCO)o2)cc1OC,5.94%
16,O=S1(=O)C[C@@H](N2CCOCC2)[C@H](N2CCOCC2)C1,1.34%
17,O=[N+]([O-])c1ccc(Nc2ccccc2O)c2nonc12,13.1%
18,Cc1ccc2nc(NC(=O)CN3C(=O)C4CC=CCC4C3=O)sc2c1 (centres unmarked),1.36%
19,COc1ccc(CNC(=O)[C@H](C)NC(=O)N2CCn3c2nc2ccccc23)cc1,-20.7%
20,COc1ccccc1CN(Cc1cc2cc(C)cc(C)c2[nH]c1=O)Cc1nnnn1CC1CCCO1 (centres unmarked),14.1%
